± gives the standard deviation of the averaged measurements. This is one part of the list.
What follows are sequences tested on PfAP2-EXP AP2 domain (GST-tagged) (assay: gcPBM binding intensity (ln(normalized median fluorescence intensity)); higher = stronger DNA binding).
Outline: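 After 1 h on an Agilent 4 × 180k array of primer-extended double-stranded 36-bp intergenic genomic probes and negative controls, bound GST-tagged P. falciparum DNA-binding domains were detected with Alexa488 anti-GST antibody and scanned at 488 nm. The domains had been expressed in E. coli, and binding took place in 1× PBS with 1% milk, 0.2 mg/ml BSA, 0.5% salmon testes DNA and 0.03% Triton X-100. Binding intensity is the highest Masliner-normalised natural-log median intensity across replicate spots of either probe orientation.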

| Sequence | gcPBM binding intensity (ln) |
| --- | --- |
| AAATAAAAAAAAAAAAAAAATAACTTAAATGGGATA [TGCATGCA_negctrl_site595] | 8.15 ± 0.63 |
| TTTTATTATTTGTCTTGTACTCATTGTAAGAGTATG [XGTACX_site1538] | 8.66 ± 0.49 |
| ATTAAATACATTAACACACACACAAATAAATACATA [CACACA_site5583] | 8.8 ± 0.56 |
| TACATACATACATACACACACACATCTATATTTATA [CACACA_site6171] | 9.205 ± 0.007 |
| GACAGATTATAGCATAGTACTCATACATACATACAT [XGTACX_site1252] | 9.27 ± 0.099 |
| TTTCAAAAATTATTTTGTACATATAATTAATATACG [XGTACX_site512] | 8.34 ± 0.43 |
| AATTTCTTCCATTGTAGTACTCAATTTTTTTTTGTT [XGTACX_site5847] | 9.04 ± 0.56 |
| CACATATACAAAAAGAAATGTTTAGTTGAAAATTAA [CACACA_negctrl_site1407] | 8.25 ± 0.42 |
| GTGTAATATTATATATATATATATAATATATATACA [CACACA_negctrl_site263] | 8.32 ± 0.27 |
| AAAAAAAAAAAAATGGTGCAACTTTGTTAAAGGAAA [GTGCAC_site9950] | 8.875 ± 0.064 |
| ATTTAAAAGTTGGTAGTGCATTAAAAATAACAAAAA [GTGCAC_site9835] | 9.19 ± 0.17 |
| ATATATATATATGCATGTACATATATTTGTTATATC [XGTACX_site3197] | 9.82 ± 0.45 |
| TTCCCTTATTTTGTATGTACACAATTTATCATGTTG [XGTACX_site2896] | 9.07 ± 0.35 |
| AAACAAAGGGAACATGTGCACTTACAAAAAAAAAGA | 9.14 ± 0.37 |
| AATAGATATATAAATACACACAAACATACCTATATA [CACACA_site7823] | 8.79 ± 0.41 |
| TCACACCTTTTTGGTTGTACTTAAATTTCTTTTTTT [XGTACX_site6438] | 8.41 ± 0.35 |
| ATTTATTTTAATTTTTTTTTTTCTCTTTTGGATCTA [CACACA_negctrl_site1408] | 8.22 ± 0.41 |
| AATGAATTTAATTCTACTATTTTTTTTTTAAATATT [XGTACX_negctrl_site296] | 8.06 ± 0.33 |
| ATTAGGCATATTTTCTGTACACAATAATAAAAAAAA [XGTACX_site3957] | 8.63 ± 0.18 |

| Sequence | gcPBM binding intensity (ln) |
| --- | --- |
| TGTAATATGAAATGTGTACACACGCACCCACAAAAA [CACACA_site8948] | 9.11 ± 0.23 |
| TTCTCAAAGTTTACGTGTACATAAATTATATAAATG [XGTACX_site2622] | 8.69 ± 0.16 |
| AATTATACATATATTTAACACACATTTTATAAAGTG [CACACA_site8362] | 8.32 ± 0.27 |
| ATATATATATATAATTGTACATGTGTGTATAATTTG [XGTACX_site2417] | 9.8 ± 0.48 |
| TTTTATTTTATATAACAACAAAATGGAAATATATAT [GTGCAC_negctrl_site71] | 8.62 ± 0.41 |
| TAAATGAAAATAAATTAACACACAATTTTAATATTG [CACACA_site8360] | 8.12 ± 0.46 |
| ATATTATGAAGGGATATTTTCAAAAATATTAGGAGA [CACACA_negctrl_site942] | 8.64 ± 0.41 |
| GTCAATATTTAGATATGTACTAAGGAGTGCTATATA [XGTACX_site222] | 8.625 ± 0.064 |
| CAATTTTTATGTGTGTGTACTCATTTGTTTTATAAA [XGTACX_site406] | 8.74 ± 0.32 |
| ATACAACAGATATATACACACATATAACAATAATAA [CACACA_site7560] | 8.66 ± 0.42 |
| TTGGAATAATATAAATAAATAAATATATATATATAT [CACACA_negctrl_site900] | 9.9 ± 0.35 |
| TTTCTTTTTGTTCGTGTACACACATGAAATTTATAA [CACACA_site8466] | 8.99 ± 0.22 |
| AAAAAAAAAAAATGTGCACACGCGTACACCCAAAAA [CACACA_site8614] | 8.6 ± 0.3 |
| ATTGATACATCCAATACACACTACAGATAATGATGT [CACACA_site5098] | 8.42 ± 0.44 |
| GTAATAAATTAAATATGTACATATTAAAATTAAGGA [XGTACX_site2290] | 8.63 ± 0.27 |
| TGCTACATAATATGTACACACATATACATATTTATA [CACACA_site6545] | 8.46 ± 0.27 |
| TATCACATTTATGAGAGTACATAATTAATTCATGAT [XGTACX_site7850] | 8.29 ± 0.3 |
| GTATGATTAAATAAAGGTACACTTATATTTATTTAT [XGTACX_site6966] | 8.44 ± 0.27 |
| TTCTTTTTTGTAATAACACACACACTAACAGAAAAA [CACACA_site8646] | 8.8 ± 0.49 |

| Sequence | gcPBM binding intensity (ln) |
| --- | --- |
| CATAATACAAATGTGATACCTGAAAATGACTTATTA [CACACA_negctrl_site994] | 8.53 ± 0.24 |
| GAATTAATTTTAAAACGTACATGGGTGTATTTACAC [XGTACX_site5939] | 8.86 ± 0.3 |
| GTTAGGATAGATTAGACATGCACATAAATGCACTTC [TGCATGCA_site561] | 8.66 ± 0.028 |
| TTTTTATAGAATTTAACACACATTTCATATAAAAAA [CACACA_site7453] | 8.22 ± 0.28 |
| TATATAACATAATATACACACATTATATGCGTAATT [CACACA_site6098] | 8.21 ± 0.4 |
| TTAAAATTCAAAAAAAAAAATCAGAATATCAGAAAA [CACACA_negctrl_site1361] | 8.3 ± 0.45 |
| GATATATAAATAAATACACACATAAAATAGAAATAT [CACACA_site6881] | 8.93 ± 0.53 |
| ATTAAAGAAATATATACACACATTATGGGGGAATAA [CACACA_site178] | 9.47 ± 0.42 |
| ACATATTAAAATATATGTACATAAAATATGAAAAAA [XGTACX_site5869] | 8.82 ± 0.3 |
| ATATTTATTCCTTTTGGTACACAAAAAAAAAAAAAA [XGTACX_site8126] | 8.51 ± 0.51 |
| TTTAAATGCTTTTTGTGGTGACTTATCCTTTCATAA [XGTACX_negctrl_site109] | 8.74 ± 0.46 |
| AATTATTTCTTTTACACATGCAATATTTAATTAAAA [TGCATGCA_site598] | 8.81 ± 0.31 |
| TATATGCTATAATATACACACATACCTATATTTATA [CACACA_site6383] | 8.64 ± 0.4 |
| AATTTAAGCAGAACATATATATATATATATATAAAG [CACACA_negctrl_site769] | 8.66 ± 0.32 |
| TTATTTGATTACTTGCGTACTTATTTCATATTTTTT [XGTACX_site6648] | 8.87 ± 0.36 |
| GGGATATTTTAAAGGGTGCATATTATTAAAATAATG | 8.97 ± 0.13 |
| ATGAGAAAACATAAAAGTACAAAAAGAAAAAAAAAA [XGTACX_site6020] | 8.57 ± 0.39 |
| TATTATATTAATGATGGTACAGTGTATATATATAAT [XGTACX_site1286] | 8.9 ± 0.35 |
